Many values rest on one well or one pass, so single values are uncertain.
How the values were obtained:
[1] = test system: CHO-K1; test: hypodiploid nuclei frequency (% of nucleated events); higher = more hypodiploid events (aneugenic)
[2] = test system: CHO-K1; test: micronucleus frequency (% of nucleated events); higher = more micronuclei (genotoxic)
[3] = test system: CHO-K1; test: relative survival (nuclei to bead ratio vs DMSO control) (% of vehicle control); higher = more surviving cells
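For hypodiploid nuclei frequency (% of nucleated events) in this document: hypodiploid nuclei gated on a flow cytometer with 488 nm excitation after SYTOX Green staining, cultures at 37 °C, positive controls vinblastine without S9 and cyclophosphamide with S9.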
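For micronucleus frequency (% of nucleated events) in this document: cells lysed with nuclei stained by SYTOX Green, then micronucleus-gated events counted against nucleated events by flow cytometry with 488 nm excitation.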
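For relative survival (nuclei to bead ratio vs DMSO control) in this document: Lysed-cell nuclei stained with SYTOX Green and counted against counting beads by flow cytometry at 488 nm excitation, with vinblastine (no S9) and cyclophosphamide (plus S9) as positive controls.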

Nc1ccc(Nc2ccccc2)cc1 [N-Phenyl-1,4-benzenediamine]
Conditions | hypodiploid nuclei frequency, [1] [%] | micronucleus frequency, [2] [%] | relative survival, [3]
concentration: 4.5 (µM), S9 metabolic activation: with S9, exposure time: 3-4 hours | 0.26 | 1.44 | 72
concentration: 4.5 (µM), S9 metabolic activation: without S9, exposure time: 24 hours | 3.1 | 2.3 | 79.7
concentration: 5.63 (µM), S9 metabolic activation: with S9, exposure time: 3-4 hours | 0.36 | 1.68 | 68.4
concentration: 5.63 (µM), S9 metabolic activation: without S9, exposure time: 24 hours | 2.08 | 2.8 | 68.3
concentration: 7.04 (µM), S9 metabolic activation: with S9, exposure time: 3-4 hours | 0.32 | 1.52 | 89.5
concentration: 7.04 (µM), S9 metabolic activation: without S9, exposure time: 24 hours | 4.68 | 4.1 | 74.4
concentration: 8.8 (µM), S9 metabolic activation: with S9, exposure time: 3-4 hours | 0.3 | 1.68 | 84.7
concentration: 8.8 (µM), S9 metabolic activation: without S9, exposure time: 24 hours | 2.32 | 3.48 | 82.1
concentration: 11 (µM), S9 metabolic activation: with S9, exposure time: 3-4 hours | 0.48 | 2.02 | 71.9
concentration: 11 (µM), S9 metabolic activation: without S9, exposure time: 24 hours | 5.14 | 4.18 | 73.6
concentration: 13.7 (µM), S9 metabolic activation: with S9, exposure time: 3-4 hours | 0.26 | 2.6 | 85.1
concentration: 13.7 (µM), S9 metabolic activation: without S9, exposure time: 24 hours | 5.18 | 4 | 67.2
concentration: 17.2 (µM), S9 metabolic activation: with S9, exposure time: 3-4 hours | 0.3 | 2.62 | 84.7
concentration: 17.2 (µM), S9 metabolic activation: without S9, exposure time: 24 hours | 4.68 | 3.48 | 58.2
concentration: 21.5 (µM), S9 metabolic activation: with S9, exposure time: 3-4 hours | 0.44 | 2.02 | 102
concentration: 21.5 (µM), S9 metabolic activation: without S9, exposure time: 24 hours | 4.8 | 4.06 | 78.3
concentration: 26.8 (µM), S9 metabolic activation: with S9, exposure time: 3-4 hours | 0.26 | 1.36 | 95.4
concentration: 26.8 (µM), S9 metabolic activation: without S9, exposure time: 24 hours | 13.1 | 2.8 | 41.4
concentration: 33.6 (µM), S9 metabolic activation: with S9, exposure time: 3-4 hours | 0.24 | 1.28 | 91.1
concentration: 33.6 (µM), S9 metabolic activation: without S9, exposure time: 24 hours | 10.7 | 3.34 | 42.1
concentration: 41.9 (µM), S9 metabolic activation: with S9, exposure time: 3-4 hours | 0.2 | 1.38 | 92
concentration: 41.9 (µM), S9 metabolic activation: without S9, exposure time: 24 hours | – | – | 30.8
concentration: 52.4 (µM), S9 metabolic activation: with S9, exposure time: 3-4 hours | 0.28 | 1.5 | 91.3
concentration: 52.4 (µM), S9 metabolic activation: without S9, exposure time: 24 hours | – | – | 40
concentration: 65.5 (µM), S9 metabolic activation: with S9, exposure time: 3-4 hours | 0.3 | 2.04 | 93.2
concentration: 65.5 (µM), S9 metabolic activation: without S9, exposure time: 24 hours | 4.92 | 1.48 | 42.7
concentration: 81.9 (µM), S9 metabolic activation: with S9, exposure time: 3-4 hours | 0.28 | 2 | 97
concentration: 81.9 (µM), S9 metabolic activation: without S9, exposure time: 24 hours | – | – | 29
concentration: 102 (µM), S9 metabolic activation: with S9, exposure time: 3-4 hours | 0.32 | 2.62 | 89.1
concentration: 102 (µM), S9 metabolic activation: without S9, exposure time: 24 hours | – | – | 16.1
concentration: 128 (µM), S9 metabolic activation: with S9, exposure time: 3-4 hours | 0.26 | 2.98 | 88.4
concentration: 128 (µM), S9 metabolic activation: without S9, exposure time: 24 hours | – | – | 5.06
concentration: 160 (µM), S9 metabolic activation: with S9, exposure time: 3-4 hours | 0.16 | 3.04 | 67.6
concentration: 160 (µM), S9 metabolic activation: without S9, exposure time: 24 hours | – | – | 0.5
concentration: 200 (µM), S9 metabolic activation: with S9, exposure time: 3-4 hours | 0.34 | 2.84 | 63
concentration: 200 (µM), S9 metabolic activation: without S9, exposure time: 24 hours | – | – | 0.01

O=C(O)C(F)(F)C(F)(F)C(F)(F)C(F)(F)C(F)(F)F [PFHxA]
Conditions | hypodiploid nuclei frequency, [1] [%] | micronucleus frequency, [2] [%] | relative survival, [3]
concentration: 4.5 (µM), S9 metabolic activation: with S9, exposure time: 3-4 hours | 0.38 | 0.78 | 94.9
concentration: 4.5 (µM), S9 metabolic activation: without S9, exposure time: 24 hours | 1.04 | 1.38 | 100
concentration: 5.63 (µM), S9 metabolic activation: with S9, exposure time: 3-4 hours | 0.44 | 1.22 | 87.4
concentration: 5.63 (µM), S9 metabolic activation: without S9, exposure time: 24 hours | 0.88 | 1.12 | 96.3
concentration: 7.04 (µM), S9 metabolic activation: with S9, exposure time: 3-4 hours | 0.22 | 1.1 | 74.4
concentration: 7.04 (µM), S9 metabolic activation: without S9, exposure time: 24 hours | 1.38 | 1.84 | 102
concentration: 8.8 (µM), S9 metabolic activation: with S9, exposure time: 3-4 hours | 0.28 | 1.7 | 90.6
concentration: 8.8 (µM), S9 metabolic activation: without S9, exposure time: 24 hours | 1.12 | 0.82 | 85.3
concentration: 11 (µM), S9 metabolic activation: with S9, exposure time: 3-4 hours | 0.24 | 1.42 | 92.2
concentration: 11 (µM), S9 metabolic activation: without S9, exposure time: 24 hours | 0.82 | 1.26 | 88.2
concentration: 13.7 (µM), S9 metabolic activation: with S9, exposure time: 3-4 hours | 0.32 | 1 | 85.5
concentration: 13.7 (µM), S9 metabolic activation: without S9, exposure time: 24 hours | 1.3 | 1.48 | 93.5
concentration: 17.2 (µM), S9 metabolic activation: with S9, exposure time: 3-4 hours | 0.3 | 1.24 | 104
concentration: 17.2 (µM), S9 metabolic activation: without S9, exposure time: 24 hours | 0.8 | 1.2 | 98.1
concentration: 21.5 (µM), S9 metabolic activation: with S9, exposure time: 3-4 hours | 0.38 | 0.86 | 99.3
concentration: 21.5 (µM), S9 metabolic activation: without S9, exposure time: 24 hours | 0.74 | 1.24 | 95.2
concentration: 26.8 (µM), S9 metabolic activation: with S9, exposure time: 3-4 hours | 0.36 | 1.08 | 131
concentration: 26.8 (µM), S9 metabolic activation: without S9, exposure time: 24 hours | 0.84 | 1.44 | 89.7
concentration: 33.6 (µM), S9 metabolic activation: with S9, exposure time: 3-4 hours | 0.34 | 1.16 | 137
concentration: 33.6 (µM), S9 metabolic activation: without S9, exposure time: 24 hours | 0.96 | 1.32 | 105
concentration: 41.9 (µM), S9 metabolic activation: with S9, exposure time: 3-4 hours | 0.38 | 0.9 | 107
concentration: 41.9 (µM), S9 metabolic activation: without S9, exposure time: 24 hours | 1.28 | 1.88 | 110
concentration: 52.4 (µM), S9 metabolic activation: with S9, exposure time: 3-4 hours | 0.28 | 1.14 | 119
concentration: 52.4 (µM), S9 metabolic activation: without S9, exposure time: 24 hours | 1.22 | 1.72 | 87.7
concentration: 65.5 (µM), S9 metabolic activation: with S9, exposure time: 3-4 hours | 0.38 | 1.06 | 120
concentration: 65.5 (µM), S9 metabolic activation: without S9, exposure time: 24 hours | 0.94 | 1.84 | 71
concentration: 81.9 (µM), S9 metabolic activation: with S9, exposure time: 3-4 hours | 0.44 | 1.4 | 96
concentration: 81.9 (µM), S9 metabolic activation: without S9, exposure time: 24 hours | 1.18 | 1.6 | 72.7
concentration: 102 (µM), S9 metabolic activation: with S9, exposure time: 3-4 hours | 0.42 | 1.42 | 112
concentration: 102 (µM), S9 metabolic activation: without S9, exposure time: 24 hours | 1.38 | 2.12 | 84.9
concentration: 128 (µM), S9 metabolic activation: with S9, exposure time: 3-4 hours | 0.26 | 1.06 | 101
concentration: 128 (µM), S9 metabolic activation: without S9, exposure time: 24 hours | 1.22 | 1.42 | 87.7
concentration: 160 (µM), S9 metabolic activation: with S9, exposure time: 3-4 hours | 0.38 | 1.56 | 105
concentration: 160 (µM), S9 metabolic activation: without S9, exposure time: 24 hours | 1.4 | 2.06 | 100
concentration: 200 (µM), S9 metabolic activation: with S9, exposure time: 3-4 hours | 0.28 | 1.32 | 107
concentration: 200 (µM), S9 metabolic activation: without S9, exposure time: 24 hours | 1.3 | 2.4 | 88.2
